According to the supplement of paper PMC8285479:
Structures can show the parent of a compound that is named as a salt. ± gives the standard deviation of the averaged measurements. The full ranking holds about 1,900 compounds; the median of “normalised cell viability (NPI; 0 = phenylarsine oxide control, 1 = DMSO control)” is about 1, and the lowest 2% start at about 0.039. The list shows a part of the results.

Test system: NCI-H1944
Assay: normalised cell viability (NPI; 0 = phenylarsine oxide control, 1 = DMSO control) (fraction of DMSO control); NCI-H1944 is a non-small cell lung cancer line; higher = more viable cells (less compound toxicity)
Conditions: 6 days
[1] = glucocorticoid arm: hydrocortisone 2.75 uM co-treatment, compound 1 µM
[2] = glucocorticoid arm: hydrocortisone 2.75 uM co-treatment, compound 5 µM
[3] = glucocorticoid arm: hydrocortisone 2.75 uM pre-treated 2 days and continued, compound 1 µM
[4] = glucocorticoid arm: hydrocortisone 2.75 uM pre-treated 2 days and continued, compound 5 µM
[5] = glucocorticoid arm: vehicle, compound 1 µM
[6] = glucocorticoid arm: vehicle, compound 5 µM
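Also: CTB read-out in 384-well plates, mean of triplicate wells, normalised per plate against 1 µM phenylarsine oxide and 0.1% DMSO, compounds added 24 h after seeding.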

SMILES | normalised cell viability [1] | normalised cell viability [2] | normalised cell viability [3] | normalised cell viability [4] | normalised cell viability [5] | normalised cell viability [6]
CNC(=O)Oc1ccc2c(c1)[C@]1(C)CCN(C)[C@@H]1N2C [(-)-Physostigmine] | 1.01 ± 0.021 | 0.969 ± 0.0095 | 1 ± 0.031 | 0.952 ± 0.03 | 0.9947 ± 0.0031 | 0.984 ± 0.011
CN(C)C(=O)Oc1cccc([N+](C)(C)C)c1 [Neostigmine bromide] | 0.9983 ± 0.0029 | 1.017 ± 0.0058 | 1.013 ± 0.0058 | 1.04 ± 0.072 | 0.992 ± 0.0027 | 0.9993 ± 0.0097
CC(N)c1cccc(Cl)c1Cl (racemic) [(±)-2,3-Dichloro-alpha-methylbenzylamine hydrochloride] | 1.006 ± 0.0075 | 1.02 ± 0.011 | 1.003 ± 0.0064 | 1.013 ± 0.0058 | 0.9993 ± 0.0097 | 1.001 ± 0.0081
CNC(=O)OCC[N+](C)(C)C [Methylcarbamylcholine chloride] | 1.005 ± 0.0087 | 1.023 ± 0.0058 | 1.01 ± 0.012 | 1.05 ± 0.069 | 1.003 ± 0.0058 | 1.013 ± 0.0058
Cc1sc2c(c1C)C(c1ccc(Cl)cc1)=N[C@@H](CC(=O)Nc1ccc(O)cc1)c1nnc(C)n1-2 | 0.995 ± 0.0087 | 1.02 ± 0.011 | 0.971 ± 0.011 | 0.994 ± 0.018 | 0.962 ± 0.023 | 0.772 ± 0.017
CP(=O)(O)CCCN | 0.999 ± 0.011 | 1.007 ± 0.0058 | 0.996 ± 0.012 | 0.9995 ± 0.00071 | 0.984 ± 0.0066 | 0.983 ± 0.016
COc1ccc2c(c1OC)C(=O)OC2C1c2cc3c(cc2CCN1C)OCO3 (single isomer, unassigned; (+)) [(+)-Hydrastine] | 0.999 ± 0.011 | 0.997 ± 0.011 | 0.993 ± 0.015 | 0.993 ± 0.019 | 1.013 ± 0.0058 | 1.01 ± 0.017
O=C1C=CC(=O)C=C1 [p-Benzoquinone] | 1.007 ± 0.0058 | 1.01 ± 0.012 | 1.006 ± 0.0075 | 0.999 ± 0.03 | 1.01 ± 0.012 | 0.999 ± 0.011
CC1=NN=C(c2ccc(N)cc2)c2cc3c(cc2C1)OCO3 | 1.013 ± 0.0058 | 0.988 ± 0.01 | 1.01 | 1.01 ± 0.013 | 1.01 | 1.017 ± 0.0058
O=C(O)c1cc[c]([Hg][Cl])cc1 [4-Chloromercuribenzoic acid] | 1.002 ± 0.0072 | 1.01 ± 0.015 | 0.863 ± 0.23 | 0.9995 ± 0.00071 | 0.9907 ± 0.008 | 1.003 ± 0.0064
C[C@H]1CNCCc2ccc(Cl)cc21 [Lorcaserin HCl] | 1.003 ± 0.0064 | 1.02 ± 0.029 | 1 ± 0.019 | 1.02 ± 0.029 | 1.003 ± 0.0061 | 0.998 ± 0.0035
CC(=O)c1c(O)c(C)c(O)c(Cc2c(O)c3c(c(C(=O)/C=C/c4ccccc4)c2O)OC(C)(C)C=C3)c1O [Rottlerin] | 1 | 1.04 ± 0.011 | 1.03 ± 0.023 | 1.02 ± 0.024 | 0.993 ± 0.0017 | 0.372 ± 0.55
CC(=O)[C@H]1CC[C@H]2[C@@H]3CC[C@H]4C[C@H](O)CC[C@]4(C)[C@H]3C(=O)C[C@]12C [5alpha-Pregnan-3alpha-ol-11,20-dione] | 1.03 ± 0.01 | 1.05 ± 0.059 | 1.033 ± 0.0058 | 1.03 ± 0.015 | 1.023 ± 0.0058 | 1.04 ± 0.015
COc1ccccc1N1CCNCC1 [1-(2-Methoxyphenyl)piperazine hydrochloride] | 0.996 ± 0.0017 | 1.01 ± 0.016 | 1.02 ± 0.022 | 1.01 ± 0.017 | 0.993 ± 0.0017 | 0.992 ± 0.007
C=C1C[C@@H]2[C@H](CC[C@]3(C)C(=O)CC[C@@H]23)[C@@]2(C)C=CC(=O)C=C12 [Exemestane] | 0.821 ± 0.0056 | 1.06 ± 0.021 | 0.991 ± 0.0036 | 1.04 ± 0.01 | 0.303 ± 0.012 | 1.023 ± 0.0058
Cc1ccc(-n2nccn2)c(C(=O)N2CCN(c3nc4cc(Cl)ccc4o3)CC[C@H]2C)c1 [Suvorexant (MK-4305)] | 1.03 ± 0.03 | 1.02 ± 0.022 | 1.04 ± 0.017 | 0.996 ± 0.016 | 1.01 | 1.002 ± 0.007

SMILES | normalised cell viability [1] | normalised cell viability [2] | normalised cell viability [3] | normalised cell viability [4] | normalised cell viability [5] | normalised cell viability [6]
CCCN1CCO[C@@H]2c3cc(O)ccc3OC[C@H]21 | 1.02 ± 0.017 | 1.04 ± 0.021 | 1.01 ± 0.01 | 1.02 ± 0.021 | 0.995 ± 0.0044 | 1.001 ± 0.0078
CCCN1CCO[C@@H]2c3cc(O)ccc3OC[C@H]21 (racemic) [(±)-PD 128,907 hydrochloride] | 1.002 ± 0.0072 | 0.976 ± 0.013 | 1.03 ± 0.064 | 1 ± 0.016 | 1.007 ± 0.0058 | 0.999 ± 0.001
CCCN1CCO[C@@H]2c3cc(O)ccc3OC[C@H]21 [S(+)-PD 128,907 hydrochloride] | 0.976 ± 0.014 | 0.958 ± 0.026 | 0.862 ± 0.21 | 0.969 ± 0.021 | 0.98 ± 0.0062 | 0.9823 ± 0.0035
C[C@@H]1O[C@@H](O[C@H]2C[C@@H](O)[C@]3(CO)[C@H]4[C@H](O)C[C@]5(C)[C@@H]([C@@H]6COC(=O)C6)CC[C@]5(O)[C@@H]4CC[C@]3(O)C2)[C@H](O)[C@H](O)[C@H]1O [Dihydroouabain] | 1.027 ± 0.0058 | 0.0138 ± 0.013 | 1.01 ± 0.015 | 0.143 ± 0.081 | 0.98 ± 0.017 | 0.00677 ± 0.002
COC(=O)c1cc2c(cn1)[nH]c1ccccc12 [Methyl beta-carboline-3-carboxylate] | 1.013 ± 0.0058 | 1 ± 0.019 | 1.01 ± 0.018 | 1 ± 0.024 | 1.017 ± 0.0058 | 1.02
CCCn1c(C)c(C(=O)c2cccc3ccccc23)c2ccccc21 | 1.001 ± 0.0083 | 1.03 ± 0.023 | 1.007 ± 0.0058 | 1.06 ± 0.09 | 0.9977 ± 0.004 | 1.01 ± 0.023
O=P1(N(CCCl)CCCl)NCCCO1 (stereo unspecified) [Cyclophosphamide monohydrate] | 0.992 ± 0.015 | 0.997 ± 0.025 | 1.01 ± 0.011 | 1.01 | 0.999 ± 0.011 | 1.017 ± 0.0058
O=P1(N(CCCl)CCCl)NCCCO1 (stereo unspecified) [Cyclophosphamide monohydrate; Cyclophosphamide] | 1.02 ± 0.021 | 1.05 ± 0.01 | 1.017 ± 0.0058 | 1.04 ± 0.01 | 1.01 ± 0.01 | 1.02
CC(=O)OCC1=C(C(=O)[O-])N2C(=O)[C@@H](NC(=O)CCC[C@@H](N)C(=O)[O-])[C@H]2SC1.[Zn+2] [Cephalosporin C zinc salt] | 1.02 ± 0.01 | 1.05 ± 0.03 | 1.03 ± 0.015 | 1.03 ± 0.021 | 1.02 ± 0.016 | 1.023 ± 0.0058
CN1C(=O)CCS(=O)(=O)C1c1ccc(Cl)cc1 (stereo unspecified) [Chlormezanone] | 1.002 ± 0.0068 | 0.995 ± 0.015 | 1.003 ± 0.0058 | 1.01 ± 0.018 | 0.991 ± 0.003 | 0.996 ± 0.0035
O=C(O)[C@@H]1CCN1 [L-azetidine-2-carboxylic acid] | 0.9857 ± 0.0025 | 0.975 ± 0.011 | 0.97967 ± 0.00058 | 0.968 ± 0.0099 | 0.973 ± 0.011 | 0.9697 ± 0.008
O=C(O)Cc1cnc[nH]1 [Imidazole-4-acetic acid hydrochloride] | 1.02 ± 0.021 | 0.995 ± 0.026 | 1.02 ± 0.01 | 0.991 ± 0.01 | 1.033 ± 0.0058 | 1.033 ± 0.0058
C[C@H]1OC[C@@H](C[N+](C)(C)C)O1 [(+)-cis-Dioxolane] | 1.017 ± 0.0058 | 1.02 ± 0.01 | 1 ± 0.018 | 1.04 ± 0.081 | 1.01 ± 0.01 | 1.006 ± 0.0063
c1ccc2sc(C3(N4CCCCC4)CCCCC3)cc2c1 [BTCP hydrochloride] | 1 ± 0.0095 | 0.991 ± 0.017 | 0.998 ± 0.01 | 1.01 ± 0.021 | 0.9927 ± 0.0071 | 0.997 ± 0.003
C[N+]1(C)C2CCC1CC(OC(=O)c1c[nH]c3ccccc13)C2 (stereo unspecified) [3-Tropanylindole-3-carboxylate methiodide] | 0.9987 ± 0.0099 | 0.994 ± 0.014 | 1.01 ± 0.018 | 1.01 | 1.01 | 1.003 ± 0.0064
